Assay results as given in PubChem BioAssay AID1468 (National Center for Advancing Translational Sciences (NCATS), 2008).
“And” between values parts separate entries of the source, which are not always exact repeats. Identical values can stand only once. In all, about 280,000 compounds went through this assay and about 1,100 (0.39%) were called active. The inconclusive results got no clear call from the source; some entries with a clear call stand among them for comparison. Calls follow the shape of the dose curve; as a rule, active = well fitted inhibition curve with a large enough effect; inconclusive = small, poorly fitted or top-dose-only effect, or effect the other way; inactive = flat fitted curve, though single readings scatter. Potencies of inconclusive entries are doubtful fits and often do not repeat.

target: Microtubule-associated protein tau (Homo sapiens) (UniProt P10636); assay: qHTS for Inhibitors of Tau Fibril Formation, Fluorescence Polarization; conditions: K18 P301L tau heparin fibrillization, Alexa594 FP, 6 h; series mostly up to 57.7 µM; activity, negative = inhibition: at the top concentration; also: nearly all actives have a fitted effect of over 55% in size
UniProt P10636, sequence (P10636 whole entry, looked up): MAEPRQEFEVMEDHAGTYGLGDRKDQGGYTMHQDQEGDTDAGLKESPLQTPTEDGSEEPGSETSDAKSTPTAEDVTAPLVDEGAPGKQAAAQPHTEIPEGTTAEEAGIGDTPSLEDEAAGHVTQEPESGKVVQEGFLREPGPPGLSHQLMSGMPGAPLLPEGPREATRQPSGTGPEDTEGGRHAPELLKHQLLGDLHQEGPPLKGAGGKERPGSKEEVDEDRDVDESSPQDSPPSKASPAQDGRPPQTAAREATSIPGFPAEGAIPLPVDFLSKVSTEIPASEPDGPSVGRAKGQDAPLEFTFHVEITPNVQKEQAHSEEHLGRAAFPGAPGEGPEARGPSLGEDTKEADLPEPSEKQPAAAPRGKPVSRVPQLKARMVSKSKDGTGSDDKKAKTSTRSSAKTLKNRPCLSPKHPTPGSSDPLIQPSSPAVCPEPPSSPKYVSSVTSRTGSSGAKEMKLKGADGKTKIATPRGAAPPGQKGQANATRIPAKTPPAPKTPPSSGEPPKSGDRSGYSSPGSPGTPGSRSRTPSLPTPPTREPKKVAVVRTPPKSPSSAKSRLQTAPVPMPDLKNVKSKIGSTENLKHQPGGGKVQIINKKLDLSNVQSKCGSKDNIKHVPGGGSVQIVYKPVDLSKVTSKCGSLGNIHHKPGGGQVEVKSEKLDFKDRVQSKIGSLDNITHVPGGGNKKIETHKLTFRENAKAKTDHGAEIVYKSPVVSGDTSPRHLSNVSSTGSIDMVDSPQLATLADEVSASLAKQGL
Method in brief: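 Recombinant K18 P301L […], labeled with Alexa 594 at 0.24 uM over 15 uM unlabeled; heparin inducer 20 uM final; 37 C, 6 hr; FP endpoint.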
% is scaled to controls: 0 for no effect and ±100 for the full control effect; potency is read from the fitted curve at half-maximal effect; tags tell the direction and shape of the fitted curve.

Compound | Potency | activity, negative = inhibition
COc1ccc(S(=O)(=O)NCC2CCCN(C(=O)CNC(C)=O)C2)cc1 (centres undefined) | inconclusive: 0.1 µM [inhibitor, full curve, poor fit] | 
CCc1ccc(NCc2cc3ccc(OC)cc3n(CC(=O)Nc3ccc(F)cc3F)c2=O)cc1 | inconclusive: 0.501 µM [activator, full curve, poor fit] | 
C=CCn1c(O)c(N=NC(=S)Nc2cccc(OC)c2)c2ccccc21 |  | inactive: 0.439%
CCCCSc1nc(-c2ccc(OC)cc2)ccc1C#N | inconclusive: 31.6 µM [inhibitor, partial curve] | 
COC(=O)c1c(Cl)c2n3ccccc3c(C)c(-c3ccccc3)c-2c1C(=O)OC | inconclusive: 31.6 µM [inhibitor, partial curve] | 
CCOC(=O)CCCNC(=O)N1CCc2nc(-c3ccc(OC)cc3C)c3c(c2C1)CO[C@@H](c1ccccc1)C3 |  | inactive: 4.26% [at 11.6 µM]
CCCSc1nnc(-c2cnn(-c3ccccc3)c2-n2cccc2)n1C |  | inactive: -7.43%
CCOC(=O)c1cccc(NC(=O)NCc2cccn2Cc2ccccc2)c1 | inconclusive: 31.6 µM [inhibitor, partial curve, poor fit] | 
CC(=O)Nc1ccc(/C=C/c2nc(-c3ccccc3O)n(-c3ccccc3)n2)cc1 | inconclusive: 0.282 µM [inhibitor, full curve] | 
COc1ccc(-c2cn[nH]c2-c2ccc(OCc3ccccc3)cc2O)cc1OC | inconclusive: 25.1 µM [inhibitor, partial curve] | 
COc1cc2c(=O)n(Cc3ccccc3Cl)c(=O)n(CC(=O)Nc3ccc(C)c(C)c3)c2cc1OC | inconclusive: 20 µM [inhibitor, partial curve] | 
COc1ccc(C)cc1NC(=O)C1CCN(S(=O)(=O)c2ccc3[nH]c(=O)oc3c2)CC1 |  | inactive: -8.14%
CCCC(=O)NC(=S)Nc1ccccc1OC |  | inactive: 0.768%
COc1cccc(Nc2ccc3cc(S(=O)(=O)N4CCC(C)CC4)ccc3n2)c1 | inconclusive: 11.2 µM [inhibitor, partial curve] | 
O=C(Nc1ccccc1)Nc1cccc(Cl)c1Cl | inconclusive: 39.8 µM [inhibitor, single point] | 
Cc1cc(N2CCC(C(=O)Nc3ccc(F)cc3)CC2)nc(-c2ccccc2)n1 | inconclusive: 39.8 µM [inhibitor, single point] | 
COC(=O)Cn1c2ccc(C)cc2c2nc(C)sc21 | inconclusive: 31.6 µM [inhibitor, single point] | 
CC(C)Cn1cc(C(=O)NCc2cccs2)c2c3ccccc3n(C)c2c1=O |  | inactive: -4.5%
COc1ccc(-c2cc(-c3ccc(F)cc3)nc3c2COc2ccc(F)cc2-3)cc1 | inconclusive: 35.5 µM [inhibitor, single point] | 
COC(=O)CN(Cc1ccco1)S(=O)(=O)c1ccccc1 | inconclusive: 0.0562 µM [inhibitor, full curve] | 
Cc1c(C(=O)NCc2ccccc2Cl)sc2nc3n(c(=O)c12)CCCCC3 | inconclusive: 20 µM [inhibitor, single point] | 
CCOc1ccc(NC(=O)C2CC(=O)NC(=Nc3ccc(Cl)c(Cl)c3)S2)cc1 (centres undefined) | inconclusive: 11.2 µM [inhibitor, partial curve] | 

Compound | Potency | activity, negative = inhibition
CCOC(=O)C1(N(CC)CC)Sc2cc(C)ccc2NC1=O (centres undefined) |  | inactive: -4.68%
CCOC(=O)c1ccc(NC(=O)C2CCCN(c3ncnc4onc(-c5ccc(F)cc5)c34)C2)cc1 (centres undefined) | inconclusive: 39.8 µM [inhibitor, single point] | 
COc1cccc(CNC(=O)c2sc3nc(C)cc(C)c3c2-n2cccc2)c1OC | inconclusive: 44.7 µM [inhibitor, single point] | 
Cc1ccc(-c2n[nH]c3c2C(c2ccc(C(C)(C)C)cc2)NC3=O)cc1 (centres undefined) | inconclusive: 28.2 µM [inhibitor, partial curve] | 
O=C(NC1(O)C(=O)c2ccccc2C1=O)c1c(Cl)cccc1Cl | inconclusive: 3.98 µM [inhibitor, full curve] | 
Cc1ccc(Cl)cc1N1CCN(C(=O)c2ccc(NC(=O)c3nsc4ccccc34)cc2)CC1 | inconclusive: 11.2 µM [inhibitor, partial curve] | 
Cc1ccc(CSC2=Nc3ccccc3C3=NC(CCC(=O)NCc4ccco4)C(=O)N23)cc1 (centres undefined) | inconclusive: 39.8 µM [inhibitor, single point] | 
Cc1cccc(CN2C(=O)N(c3ccc(C(C)C)cc3)S(=O)(=O)c3ccccc32)c1 | inconclusive: 31.6 µM [inhibitor, single point] | 
COc1ccc(/C=C(/NC(=O)c2cccs2)C(=O)Nc2ccc(C)cc2)cc1OC | inconclusive: 39.8 µM [inhibitor, single point] | 
O=C1NN(c2ccc(Cl)cc2)C(=O)/C1=C\c1ccc(-c2cccc(C(=O)O)c2)o1 | inconclusive: 17.8 µM [inhibitor, partial curve] | 
COc1ccc(C(=O)Nc2ccc(C(=O)OCC(=O)c3ccccc3)cc2)cc1 | inconclusive: 28.2 µM [inhibitor, single point] | 
Cc1cccc(Cn2c(C(=O)OC(C)C)cc3c2ccn3C)c1 | inconclusive: 39.8 µM [inhibitor, single point] | 
COc1ccc(NC(=O)/C(N=Nc2cc(S(=O)(=O)Nc3ccc(OC)cc3)ccc2OC)=C(\C)O)cc1 | inconclusive: 12.6 µM [inhibitor, partial curve] | 
O=c1c(-c2nc3ccccc3s2)cccn1Cc1ccc(Cl)cc1 | inconclusive: 1.12 µM [inhibitor, full curve, poor fit] | 
Nc1nc(-c2ccccc2)[nH]c(=O)c1N=O | inconclusive: 5.01 µM [inhibitor, partial curve] | 
CN(c1ccc(OCC(=O)Nc2nc3ccccc3s2)cc1)S(=O)(=O)c1ccccc1 | inconclusive: 14.1 µM [inhibitor, partial curve] | 
CC1Cn2c(C(=O)NCc3cccc(Br)c3)cc3cccc(c32)S1 (centres undefined) | inconclusive: 17.8 µM [inhibitor, partial curve] | 
COc1ccc2c(c1)O[C@@H](c1ccc3c(c1)OCO3)[C@H](O)C2=O |  | inactive: -8.23%
CCN1C(=O)c2cccc3c(S(=O)(=O)Nc4ccccc4)ccc1c23 |  | inactive: -12.2%
O=C(CCSCc1cccc(Cl)c1)NCc1ccc(F)cc1Cl |  | inactive: 1.9%
COc1ccc(N2CCN(C(=O)NC3CCCCC3)CC2)cc1 | inconclusive: 44.7 µM [inhibitor, single point] | 
NS(=O)(=O)c1ccc(CCNC(=O)CCCCCn2c(=S)[nH]c3ccc(Br)cc3c2=O)cc1 | inconclusive: 39.8 µM [inhibitor, single point] | 

Compound | Potency | activity, negative = inhibition
CC(C)(C)OC(=O)N[C@@H](CCCCNC(=O)OCc1ccccc1)c1nnc([C@H](CCCCNC(=O)OCc2ccccc2)NC(=O)OC(C)(C)C)o1 | inconclusive: 0.316 µM [activator, full curve, poor fit] | 
CC(=O)OCC1=C(C(=O)O)N2C(=O)[C@@H](NC(=O)Cc3cccs3)[C@H]2SC1 | inconclusive: 28.2 µM [inhibitor, single point] and inconclusive: 15.8 µM [inhibitor, partial curve] and inconclusive: 20 µM [inhibitor, single point] | 
COc1ccccc1-n1c(=S)[nH]c2c(sc(=S)n2-c2ccc(C)cc2C)c1=O | inconclusive: 3.55 µM [inhibitor, full curve] | 
CCn1c2ccc(Cl)cc2c2nc3ccccc3nc21 |  | inactive: -10.3%
Cc1nn(Cc2ccccc2)c(Cl)c1/C=N/NC(=O)CNc1cccc(C(F)(F)F)c1 | inconclusive: 35.5 µM [inhibitor, partial curve, poor fit] | 
CCCn1c(=N)n(CC(O)COc2ccccc2OC)c2ccccc21 (centres undefined) | inconclusive: 0.0251 µM [inhibitor, full curve, poor fit] | 
COC(=O)c1csc(C(=O)c2c[nH]c3ccccc23)n1 | inconclusive: 10 µM [inhibitor, partial curve] | 
O=C(N/N=C/c1coc2ccccc2c1=O)c1cn(-c2ccccc2)nc1-c1ccccc1 | inconclusive: 39.8 µM [inhibitor, single point] | 
CCOC(=O)C1(Cc2cccc(Cl)c2)CCCN(C(=O)C2CC2)C1 (centres undefined) |  | inactive: -0.477%
CCN1CCC2(CC1)Oc1c(OC)cccc1C1CC(c3cccnc3)=NN12 (centres undefined) |  | inactive: 5.27%
Cc1onc(-c2c(F)cccc2Cl)c1C(=O)ONC(=O)c1ccco1 |  | inactive: -15.7%
COc1ccc(CCNC(=S)NC(=O)c2ccccc2)cc1OC |  | inactive: -1.96%
Cc1ccc(NC(=O)CC2Nc3cc(C)c(C)cc3NC2=O)c(C)c1 (centres undefined) | inconclusive: 8.91 µM [inhibitor, single point] | 
N#CC1=C2SCN(C3CCCCC3)CN2C(=O)CC1c1c(F)cccc1Cl (centres undefined) | inconclusive: 28.2 µM [inhibitor, partial curve, poor fit] | 
CCc1ccc(Sc2cc(C(=O)O)c3ccccc3n2)cc1 |  | inactive: -5.94%
O=C(CNS(=O)(=O)c1c(Cl)cccc1Cl)OCC(=O)N1CCN(c2ccccc2)CC1 |  | inactive: -4.58%
COc1ccc(-n2nc(C(=O)N(C)c3cc(Cl)ccc3OC)c3c4ccccc4n(C)c3c2=O)cc1 |  | inactive: -15.2%
Cc1c(Cl)cccc1NC(=O)CC(c1ccc(F)cc1)N1Cc2ccccc2C1=O (centres undefined) |  | inactive: -5.2%
Cc1ccc(CN=c2c([N+](=O)[O-])nn(-c3cccc(Cl)c3)n2O)cc1 | inconclusive: 6.31 µM [activator, partial curve] | 
Cc1ccc2nc(-c3ccc(NC(=O)C(C)N4C(=O)c5ccccc5C4=O)cc3)sc2c1 (centres undefined) | inconclusive: 14.1 µM [inhibitor, partial curve] | 
